Results reported in patent CN117603358A (INST MICROBIOLOGY CAS; 3SBIO GROUP; SHANXI ADVANCED …, dated 2024).

Molecular target: S蛋白, SARS-CoV-2原型毒株 (SARS-CoV-2 (prototype))
Assay: cell-based or functional assay

B1: 双特异性抗体蛋白DIA-19 (bispecific antibody)
chain: QITLKESGPTLVKPTQTLTLTCTFSGFSLSTSGVGVAWIRQPPGKALEWLALIYWDNDKRSSPSLNNRLTITKDTSKNQVVLTMTNMDPEDTATYYCAHFFSHYDSSNYYYGSWFDPWGQGTLVTVSSGGGGSGGGGS[letters of about 100 residues omitted]FTFGPGTKVDIKGGGGSGGGGSGGGGSGGGGSGGGGSEVQLVESGGGVVQPGGSLRLSCAVSGFTFDDYAMHWVRQAPGKGLDWVSLISGDGSYTYYADSVKGRFTISRDSSKNSLYLQMNSLRTEDTALYYCAKAQTPTLWWLQDAFDIWGQGTMVTVSSGGGGSGGGGSEIVLTQSPGTLSLSPGERATLSCRASQSFDSRYLGWYQQKSGQAPRLLIYGASSRATGIPDRFSGSGSGTDFTLTISRLEPEDFAVYYCQQFGDSPFTFGQGTKLEIKGGGGS[letters of human IgG1 Fc with changes omitted]
假病毒中和效果 IC50: 0.849 ng/mL
